According to article PMC6919601, “Identification of Plasmodium dipeptidyl aminopeptidase allosteric inhibitors by high throughput screening” (PLoS ONE, 2019):
The campaign covered roughly 110,000 compounds. About 230 (0.21%) showed an effect of 50% or more. Some of the results follow.

Each compound was assayed against DPAP1 (Plasmodium falciparum, UniProt Q8IIJ9) (assay: primary screen, percent inhibition; read by cleavage of a fluorogenic dipeptide substrate; higher = more effect of the substance).
Parameters: species or system P. falciparum D10 trophozoite lysates; single well
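Also: 30 min substrate incubation versus DMSO and 10 µM JCP410 controls.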

DPAP1, sequence (Q8IIJ9 whole entry, looked up): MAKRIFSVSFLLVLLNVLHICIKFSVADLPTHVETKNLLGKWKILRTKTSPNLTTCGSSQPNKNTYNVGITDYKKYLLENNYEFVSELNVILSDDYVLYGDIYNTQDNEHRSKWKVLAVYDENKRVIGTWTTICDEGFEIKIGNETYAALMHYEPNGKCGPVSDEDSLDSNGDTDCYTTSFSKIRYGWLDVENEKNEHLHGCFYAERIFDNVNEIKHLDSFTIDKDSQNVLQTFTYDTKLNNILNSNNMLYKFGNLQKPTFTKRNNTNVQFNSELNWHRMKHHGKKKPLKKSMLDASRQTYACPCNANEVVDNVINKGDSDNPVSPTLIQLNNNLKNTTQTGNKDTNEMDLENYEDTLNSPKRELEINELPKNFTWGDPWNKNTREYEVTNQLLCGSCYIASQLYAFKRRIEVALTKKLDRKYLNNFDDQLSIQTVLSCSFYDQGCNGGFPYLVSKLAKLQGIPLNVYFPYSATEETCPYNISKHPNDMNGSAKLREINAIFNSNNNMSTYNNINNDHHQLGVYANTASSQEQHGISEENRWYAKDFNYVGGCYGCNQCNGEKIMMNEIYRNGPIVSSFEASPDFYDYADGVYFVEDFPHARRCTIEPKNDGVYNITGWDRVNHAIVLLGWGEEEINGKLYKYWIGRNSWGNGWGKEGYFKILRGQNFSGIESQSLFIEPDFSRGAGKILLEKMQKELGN

Row | SMILES | % Inhibition @ 10 uM [%]
1 | CCOC(=O)C1CCCN(Cc2c(Cl)cccc2Cl)C1 (stereo not drawn) | -2.34
2 | COc1ccc(C2C(C(C)=O)=C(O)C(=O)N2c2ccc(C)c(Br)c2)c(OC)c1 (stereo not drawn) | -5.27
3 | CCOC(=O)C1CCCCN1Cc1c(F)cccc1Cl (stereo not drawn) | -4.75
4 | N#CC1=C(N)OC2=C(C(=O)CC(c3ccccc3)C2)C1c1cccc(F)c1 (stereo not drawn) | -4.02
5 | CCOc1ccc(CCNC(=O)CCc2nnc3n(CCC(C)C)c(=O)c4ccccc4n23)cc1 | 3.54
6 | O=C1c2ccc(Br)cc2C(=O)N1CCO | -5.65
7 | CCOC(=O)c1cnc(SCC(=O)Nc2nc3ccccc3s2)nc1N | -2.92
8 | NC(=O)COc1ccc(-c2noc(-c3cccs3)n2)cc1 | -7.38
9 | COc1ccc(CNC(=O)CN(Cc2ccccc2)S(=O)(=O)c2ccccc2)cc1 | 2.22
10 | Cc1cccc(NC2=NC(=O)/C(=C3/C(=O)Nc4ccccc43)S2)c1C | -0.0938
11 | Cc1ccc(-n2nc3c(=O)n(CC(=O)NCc4ccc(C)o4)nc(C)c3c2C)cc1 | -11.9
12 | COc1cccc(C2=NOC(C(=O)N3CCCC3)C2)c1 (stereo not drawn) | -3.45
13 | COc1ccc(-n2nc3c(N4CCC(C(=O)NCCc5ccco5)CC4)nnc(C)c3c2C)cc1 | 12.1
14 | COc1ccc(N2C(N)=C(C#N)C(c3ccc(Br)cc3)C3=C2CCCC3=O)cc1 (stereo not drawn) | 0.983
15 | CC(C)CC(C(=O)NCC#N)c1cccc(-c2ccc(S(=O)(=O)N3CCN(CCO)CC3)cc2)c1 (stereo not drawn) | 1.7
16 | CCOC(=O)c1c(S(=O)(=O)Nc2cccnc2)c(C)n(C)c1C | -5.57
17 | CSc1ccc(CN2CCC(O)CC2)cc1 | -3.82
18 | CCc1c(O)n(-c2ccccc2)c2ccc(Cl)n[n+]2c1=O | -4.31
19 | CSc1ccccc1NS(=O)(=O)c1cccc2cccnc12 | -3.19
20 | C=CCN1C(=O)NC(C(F)(F)F)(C(F)(F)F)N=C1c1ccccc1 | -1.11
21 | COCCCNC(=O)c1cc(-c2ccc(C)s2)nc2ccccc12 | -0.132
22 | CC1CCCN(c2nc3nonc3nc2Nc2ccc3c(c2)OCO3)C1 (stereo not drawn) | -7.62
23 | c1ccc(COc2cccc(CNCc3cccnc3)c2)cc1 | 2.44
24 | COc1ccc(-c2csc(C(=O)N[C@@H](CC(C)C)C(=O)NCC#N)c2)cc1 | -0.207
25 | COc1cccc(NC2=C(Cl)C(=O)N(c3cccc(C)c3)C2=O)c1 | -1.84
26 | O=C(CN1C(=O)S/C(=C/c2ccncc2)C1=O)Nc1ccccc1 | 3.83

Row | SMILES | % Inhibition @ 10 uM [%]
27 | CC(=O)Nc1ccc(NC(=O)COc2ccc(C)cc2)cc1C | -5.23
28 | O=C(O)CSc1cccc(C(=O)O)c1 | 3.25
29 | CCCC1CCc2c(sc(NC(=O)c3cccnc3Cl)c2C(N)=O)C1 (stereo not drawn) | 7.02
30 | COc1ccc2cc(C(=O)Nc3cccc(C(F)(F)F)c3)sc(=O)c2c1OC | 2.76
31 | CC(C)C1(C)NCCN2C(=O)CSC21 (stereo not drawn) | 3.76
32 | CN(CC(=O)Nc1cccc(Br)c1)S(=O)(=O)c1ccc(F)cc1 | -2.8
33 | Cc1ccc(S(=O)(=O)N2CCC(C(=O)O)CC2)cc1F | -4.91
34 | CCn1cc(/C=C(\NC(=O)c2ccccc2OC)C(=O)NCc2ccco2)c2ccccc21 | 1.64
35 | COc1ccccc1NC(=O)c1cc(Cl)cc(Cl)c1OC | -0.999
36 | Cc1cccc(CNC(=O)CSc2nnc(C)c3c(C)n(-c4ccccc4)nc23)c1 | 0.535
37 | Cc1nn(-c2ccccn2)c2c1C(=O)C(C#N)CC2 (stereo not drawn) | 2.57
38 | O=C(Nc1nc2ccccc2s1)c1cc2cc(Cl)ccc2oc1=O | -1.12
39 | CCCCN(C)CCCNC(=O)c1cc(O)nc2ccc(S(=O)(=O)N3CCCCC3C)cc12 (stereo not drawn) | -1.34
40 | COc1ccc(C(=O)Nc2ccc(F)c(Cl)c2)cc1OC | -2.17
41 | Cc1c2cnn(CC(=O)NCCCN3CCN(C)CC3)c(=O)c2c(C)n1Cc1ccccc1F | -5.81
42 | CN(C1CCCCC1)S(=O)(=O)c1ccc2[nH]cc(C=O)c2c1 | -2.22
43 | CCC1=C(c2ccc(C)cc2)S(=O)(=O)N=C1N1CCC(C(=O)NCCC2=CCCCC2)CC1 | 0.762
44 | Cn1c(C(=O)O)c(CNC2CCCc3ccccc32)c2ccccc21 (stereo not drawn) | 0.277
45 | CCNc1ncnc2c1cnn2C | -4.28
46 | Cc1ccc(CSCC(=O)NC2CCCC2)cc1 | 2.18
47 | CC(=O)N1N=C(c2ccncc2)OC12CCCCCC2 | -3.83
48 | Cc1n[nH]c(C)c1S(=O)(=O)N1CCC(C(=O)NCc2ccccc2Cl)CC1 | -5.67
49 | O=S(=O)(Nc1ccc(F)c(Cl)c1)c1ccccc1 | -1.56
50 | CCc1cccc2c(C#N)cn(CC(=O)NCCOC)c12 | -1.84
51 | Cc1ccc2c(c1)c1c3n2CCN(C2CCO2)C3CCC1 (stereo not drawn) | 2.25
52 | CC1CCN(c2nc3nonc3nc2Nc2cccc(Cl)c2)CC1 | 4.88

Row | SMILES | % Inhibition @ 10 uM [%]
53 | Cc1oc(-c2ccc(Cl)cc2)nc1CN1CCCC(C(=O)NC2CCC(C)CC2)C1 (stereo not drawn) | -4.71
54 | COc1cc(-c2nc3nc4c(c(O)n3n2)CCC4)cc(OC)c1OC | 2.62
55 | CC(C)c1ccc(/C=C/C(=O)N2CCCCCC2)cc1 | -2
56 | COc1ccc(CNC(=O)CN2C(=O)CSc3nc(C)cc(C)c32)cc1 | -0.637
57 | Cc1nnc(NCc2ccccc2Cl)c2c1nnn2Cc1ccc(F)cc1 | 3.27
58 | O=C(NCc1ccc2c(c1)OCO2)C1CCCN(c2nc3ccsc3c(=O)s2)C1 (stereo not drawn) | -2.74
59 | CN1CCN(c2ccc(N3CCN(C)CC3)nn2)CC1 | 0.266
60 | CCC(=O)N1N=C2c3ccc(OC)cc3CCC2C1c1ccc(Br)cc1 (stereo not drawn) | -1.43
61 | c1ccc(CNc2nc3ncccc3nc2-c2ccccc2)cc1 | -2.25
62 | Cc1onc(-c2c(Cl)cccc2Cl)c1C(=O)N1CCCC1 | 3.44
63 | CN1C(c2ccccc2)CC(=O)CC1c1ccccc1 (stereo not drawn) | -0.771
64 | CC12C(=O)N(c3ccccc3O)C(=O)C1C1C=CC2C1 (stereo not drawn) | 2.69
65 | CCC(C(=O)Nc1nc2nc(-c3ccccc3)cc(O)n2n1)c1ccccc1 (stereo not drawn) | 2.05
66 | Cn1c(NC(=O)c2ccc(F)cc2)nc2ccccc21 | 1.64
67 | COc1cccc(NC(=O)CNS(=O)(=O)c2cc(Cl)ccc2Cl)c1 | -2.28
68 | CC(NC(=O)C1CCCN(S(=O)(=O)N2CCOCC2)C1)C12CC3CC(CC(C3)C1)C2 (stereo not drawn) | -2.56
69 | O=C(NCCO)/C(=C\C=C\c1ccccc1)NC(=O)c1ccccc1Cl | 17.9
70 | COc1ccc(-c2cc(C(=O)N3N=C(C(F)F)CC3(O)C(F)F)c3ccccc3n2)cc1OC (stereo not drawn) | -5.06
71 | Cc1sc2nc(SCC(=O)N3CCN(CCO)CC3)nc(O)c2c1C | 6.23
72 | Cc1nc2ccc(S(=O)(=O)N(C)CC(=O)Nc3nccs3)cc2s1 | 2.76
73 | Cn1c(=O)c2c(nc(SCC(=O)N3CCOCC3)n2Cc2cccc(F)c2)n(C)c1=O | 1.37
74 | CC(=O)Nc1ccccc1SCC(=O)Nc1ccc(Cl)cc1 | 0.889
75 | CC(C)c1ccc2oc(-c3ccc(N)cc3O)nc2c1 | -2.88
76 | CC1SC(c2ccc(Br)cc2)N(c2ccccc2)C1=O (stereo not drawn) | 0.661
77 | OCC1CCCN1Cc1ccc(F)c(Br)c1 (stereo not drawn) | 3.48
78 | Cc1c(C(=O)NC(C)(C)C)sc2nc(-c3ccc(F)cc3)cn12 | 1.55

Row | SMILES | % Inhibition @ 10 uM [%]
79 | CC1=NC2(CCCCCC2)Cc2ccccc21 | -2.16
80 | COC(=O)NC(=O)C(=CNCc1ccc(Cl)c(Cl)c1)C(=O)NC(=O)OC | 2.13
81 | O=C(NCc1c(O)c(Cl)cc(Cl)c1Cl)c1ccccc1 | -6.99
82 | CSc1ccc(Cl)c(C(=O)Nc2cccc(C)n2)c1 | 2.67
83 | CCN1CCN(C/C=C/c2ccccc2)CC1 | -5.42
84 | O=C(O)c1ccc(NS(=O)(=O)c2cccc(C(=O)Nc3ccccc3[N+](=O)[O-])c2)cc1 | 4.82
85 | CS(=O)(=O)c1ccc2nc(NC(=O)c3cccs3)sc2c1 | -4.33
86 | CCCCNC(=O)Cn1nnc2sc3c(c2c1=O)CCCC3 | 0.758
87 | O=C(Cn1nc(-c2ccccc2)c2ccccc2c1=O)N1CCCCC1 | 3.06
88 | CC(C)(C)c1ccc(C(=O)Nc2ccc(Cl)nc2)cc1 | 2.5
89 | COc1cc2nc(O)n3nc(C)nc3c2cc1OC | -0.326
90 | CC(CCc1ccccc1)NC(=O)c1cccs1 (stereo not drawn) | 3.47
91 | COc1cc(C2CC(=O)N3C(=C2C#N)SCC3(O)c2ccco2)cc(OC)c1OC (stereo not drawn) | -1.74
92 | Cc1ccc(-c2noc(CCC(=O)N3CCC(Cc4ccccc4)CC3)n2)cc1 | 2.9
93 | O=C(C1CC(c2ccc(F)cc2)=NO1)N1CCc2ccccc2C1 (stereo not drawn) | -0.431
94 | CC1(C)CC2(CC(c3ccccc3F)c3ccc(O)c(O)c3O2)NC(=S)N1 (stereo not drawn) | -2.5
95 | O=C(c1cc2nc(-c3ccccc3)cc(C(F)(F)F)n2n1)N1CCOCC1 | 1.87
96 | CC(=O)c1cnc2c(-c3ccccc3)c(-c3ccccc3)nn2c1C | -0.13
97 | CC1CCC(NC(=O)C2CCCN2S(=O)(=O)c2ccc3[nH]c(-c4ccccc4)nc3c2)CC1 (stereo not drawn) | 4.92
98 | CCn1c(C)cc(/C=C2\SC(=O)N(CC(=O)Nc3ccccc3)C2=O)c1C | 0.161
99 | CC(C)Oc1cccc(C(=O)Nc2ccc(Cl)cn2)c1 | -13.4
100 | CN1CCCN(C2CC(=O)N(c3ccccc3)C2=O)CC1 (stereo not drawn) | -4.41
101 | Cc1ccc(C)c(CN2CCCN(C)CC2)c1 | 1.48
102 | Nc1c(C(=O)Nc2ccc(Cl)cc2)sc2nc3c(cc12)CCC3 | 0.931
